Legend:
[1] = target: T1, Human Gal3 peptides (Homo sapiens, UniProt P17931); experiment: Gal3 peptide library binding ELISA; conditions: antibodies 5 μg/mL
T1 construct: purchased LifeTein custom order; host or cells: synthetic peptides
Method: (§1) To identify the epitopes to which Gal3 antibodies with and without Gal3-APP695 blocking activity bound, a library of 20 amino acid peptides representing portions of Gal3, summarized in FIG. 17 (SEQ ID NOs: 3-26), was produced and the ability to bind Gal3 antibodies was evaluated by ELISA.
(§2) Human Gal3 peptides (LifeTein, custom order) and human Gal3 proteins (R&D Systems, 8259-GA; TrueBinding, QCB200349) were diluted in PBS (Corning, 21-030-CM) to concentrations of at least 100 μg/mL (peptides) or 1 μg/mL (proteins), and added to the wells of several 96-well ELISA plates (Thermo Fisher, 44-2404-21). After incubating the plates at 4° C. overnight, the plates were washed three times with PBST (PBS with 0.05% Tween 20 [VWR, 0777]). The plates were then blocked for an hour with 2% BSA (EMD Millipore, 126609) in PBST at room temperature with gentle rocking. Thereafter, the 2% BSA in PBST was discarded and Gal3-binding antibodies (reformatted hIgG4 [S228P]) were diluted in 2% BSA in PBST to concentrations of 5 μg/mL and added to the wells. The plates were incubated for an hour at room temperature with gentle rocking and then washed three times with PBST. […] The reaction was stopped with 1M HCl (JT Baker, 5620-02) and read using a plate reader (Molecular Devices) at absorbance of 450 nm.

[2] = test system: Human Gal3 peptides; experiment: Gal3 peptide library binding ELISA; conditions: antibodies 5 μg/mL
Method: as §1, §2

T1 sequence (P17931 52-71): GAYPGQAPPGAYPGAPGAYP

B1: F846TC.16B5: anti-Gal3 antibody (antibody)
heavy: QIQLVQSGPELKKPGETVKISCKASGYTFTNYGMNWVKQAPGKGLKWMGWINTYTGEPAYADDFKGRFAFSLETSASTAYLQINNLKNEDMATYFCARWGGYDGDYYAMDYWGQGTSVTVSSASTKGPSVFPLAPCSRSTSESTAALGCLVKDYFPEPVTVSWNSGALTSGVHTFPAVLQSSGLYSLSSVVTVPSSSLGTKTYTCNVDHKPSNTKVDKRV[letters of human IgG4 Fc with S228P (EU numbers) omitted]
light: NIMMTQSPSSLAVSAGEKVTMSCKSSQSVLYSSNQKNYLAWYQQKPGQSPKLLIYWASTRESGVPDRFTGSGSGTDFTLTISSVQAEDLAVYYCHQYLSSLTFGAGTKLELKRTVAAPSVFIFPPSDEQLKSGTASVVCLLNNFYPREAKVQWKVDNALQSGNSQESVTEQDSKDSTYSLSSTLTLSKADYEKHKVYACEVTHQGLSSPVTKSFNRGEC
Binding to Peptide 6 (SEQ ID NO: 8) of Gal3 [1]: bind and bound
Binding to Peptide 17 (SEQ ID NO: 19) of Gal3 [2]: bind

Reference: patent publication US20250145722A1, “ANTI-GAL3 ANTIBODIES AND METHODS OF USE” (TrueBinding, Inc., priority 2020, published 2025)
